Consider 83 molecules from ChEMBL document CHEMBL4888484, “Replenishing the malaria drug discovery pipeline: Screening and hit evaluation of the MMV Hit Generation Library 1 (HGL1) against asexual blood stage Plasmodium falciparum ,using a nano luciferase reporter read-out” (2022).

The whole screen tested about 150,000 compounds, of which about 540 (0.36%) showed an effect of 50% or more. The list shows a part of the results.

The test system of this test is Plasmodium falciparum. The experiment in a line: Primary screen in NF54 nanoGlo assay, in single point, at 2uM, 72h; a lower Z score goes with more inhibition. Type of test: functional, Erythrocyte. Particulars: timepoint 72 hour.
Take `C[C@H]1CCc2onc(C(=O)N3CCN(c4ccccn4)CC3)c2C1`: the “% Inhibition” value is listed as -19% and the Z score worked out at 3.26.
For `CC(C)(C)c1cc(NC(=O)CS(=O)(=O)c2ccccc2F)on1`, the “% Inhibition” value was -3% and the Z score was 0.42.
On the same counts, the results for `C[C@@H](C(=O)N1CC(OCc2ccccc2F)C1)N1CCN(C)CC1` are -8% and 1.21.
As for `CC(C)CN(Cc1cccc(Cl)c1)C(=O)c1cc(C(=O)O)nn1C`, the “% Inhibition” value is given as -3% and the Z score was 0.41.
On the same counts, the results for `CC(C)[C@@](C)(C#N)NC(=O)Cn1cccc(C#N)c1=O` are -7% and 1.19.
As to `CN(C)C(=O)CN1CCC2(CC1)CN(CCOc1ccccc1)C(=O)O2`, the “% Inhibition” value was found to be 3% and the Z score is listed as -0.5.
With `O=C(Nc1cccc(Br)c1)c1ccc(Oc2nccnc2N2CCCCC2)cc1`, the “% Inhibition” value is recorded as -3% and the Z score is 0.27.
Take `COC1CCCC(C(=O)N2CCN(Cc3c(-c4ccc(Cl)cc4)nc4ccc(-c5cccc(C)c5)cn34)CC2)C1` (stereo unspecified): the “% Inhibition” value was -12% and the Z score amounted to 1.81.
The like results for `COc1cccc(-c2cc3c(N4CCC[C@H](C(=O)NCc5cccc(Cl)c5)C4)nccn3n2)c1` were, in that order, -1% and 0.18.
On the same counts, the results for `CN(C)C[C@@H]1CN(C)C[C@H]1NS(=O)(=O)c1ccc(Cl)cc1` are -12% and 1.86.
Take `CC(C)NC(=O)CCN1CCC2(CC1)C[C@@H](c1ccccc1)C(=O)N(C)C2`: the “% Inhibition” value is listed as -24% and the Z score came out at 2.19.
As to `O=C1NCCC[C@@H]1Nc1ncccc1Br`, the “% Inhibition” value was -18% and the Z score is 2.28.
On to `CNC(=O)[C@H]1CC[C@H](CNc2nccnc2N(C)C)CC1`, for which the “% Inhibition” value was -7% and the Z score is on record as 1.1.
As for `COc1ccccc1N(C)CC(=O)N[C@H]1CCS(=O)(=O)C1`, the “% Inhibition” value was 14% and the Z score was -2.63.
On the same counts, the results for `CC(C)c1cc(C(=O)N2CCC3(CC2)CC(=O)N(C[C@H]2CCCO2)C3)no1` are -3% and 0.45.
Consider `CN(C)Cc1csc(-c2nccn2CCn2cnnc2)c1`, for which the “% Inhibition” value is -12% and the Z score is reported as 1.56.
As to `CO[C@@H](C(=O)NC1(c2c(F)cccc2F)COC1)c1ccc(O)cc1`, the “% Inhibition” value is reported as -4% and the Z score was 0.68.
As for `CC1CCN(C(=O)CNc2nn(C)cc2C(N)=O)CC1`, the “% Inhibition” value is -11% and the Z score is 1.58.
Turning to `CC(C)Oc1ccccc1C(=O)Nc1ccc2c(c1)C(=O)NC2`, the “% Inhibition” value is reported as -4% and the Z score was 0.6.
Turning to `Cc1oc(-c2ccc(Cl)cc2)cc1C(=O)NCCc1ccccc1`, the “% Inhibition” value is -8% and the Z score is given as 1.01.
With `Cc1c(Br)c2ccccc2n1CC(=O)NCc1ccc(N2CCN(C)CC2)nc1`, the “% Inhibition” value was 6% and the Z score was -0.74.
On to `CCc1nc(N2CC3(C2)CC(F)(F)C3)c2ccsc2n1`, for which the “% Inhibition” value is -2% and the Z score was found to be 0.22.
`CCOC(=O)c1ccc(N2C(=O)NC3(CCCCC3)C2=O)cc1`: the “% Inhibition” value was -9% and the Z score turned out to be 1.08.
In the case of `CN1CC(=O)N2CCN(C(=O)Cn3ccc4ccccc43)C[C@H]2C1=O`, the “% Inhibition” value is on record as -10% and the Z score came out at 1.42.
On to `COc1cc(C(=O)N2CC[C@]3(CC(=O)NC3=O)C2)ccn1`, for which the “% Inhibition” value is given as -8% and the Z score is listed as 1.37.
Consider `COc1ccccc1CC(=O)N[C@H]1CCCNC1=O`, for which the “% Inhibition” value is reported as -11% and the Z score was 1.69.
The like results for `c1coc(CN2CCN(c3nccn4cnnc34)CC2)c1` were, in that order, -12% and 2.04.
As for `CC(=O)N1CCOC[C@H]1C(=O)Nc1ccc2c(ccn2CC(C)C)c1`, the “% Inhibition” value is listed as -10% and the Z score is given as 1.29.
As to `COCC1(c2noc([C@@H]3CCCO3)n2)CCCCC1`, the “% Inhibition” value amounted to 1% and the Z score is on record as -0.09.
On to `O=C(NCCc1noc(C(F)(F)F)n1)[C@@H]1CCC[C@H](O)C1`, for which the “% Inhibition” value is reported as -10% and the Z score was 1.69.
Turning to `CCCN(CCO)C(=O)Nc1ccc(Cl)cc1F`, the “% Inhibition” value is on record as -14% and the Z score is given as 1.8.
Regarding `Cc1ccc2nc(N3CCC[C@H](O)C3)c(CN(C)CCc3cn[nH]c3)cc2c1`, the “% Inhibition” value was -9% and the Z score was found to be 1.17.
As for `CCOCc1ccc(NC(=O)N2CCC3CCC(C2)N3C(C)C)cc1` (stereo unspecified), the “% Inhibition” value is listed as 8% and the Z score was -1.16.
The like results for `Cc1c(Cl)ccc2c1NC(=O)C21NC(C(C)O)[C@H]2C(=O)N(Cc3ccc4c(c3)OCO4)C(=O)[C@H]21` (stereo partly specified) were, in that order, -9% and 1.39.
On to `Cc1ccc(-n2cnnc2)c(C(=O)N2CCC3CCC(C2)S3(=O)=O)c1` (stereo unspecified), for which the “% Inhibition” value is -7% and the Z score was 1.08.
On to `CC(=O)Nc1nc(-c2ccccc2)[n+](-c2ccccc2)s1`, for which the “% Inhibition” value is listed as 12% and the Z score is -1.55.
As for `C[C@@H](CCc1ccccc1)NC(=O)NCc1nnc2c(Cl)cc(C(F)(F)F)cn12`, the “% Inhibition” value is recorded as -5% and the Z score was 0.55.
On the same counts, the results for `CN1C[C@@H](NC(=O)c2ccccc2OCc2ccccc2)CC1=O` are -4% and 0.84.
Consider `Cc1noc([C@H]2CN(CCc3ccccc3)CC23CCCC3)n1`, for which the “% Inhibition” value is recorded as -2% and the Z score came to 0.3.
Consider `CC(C)N1CCC(C(=O)N[C@@H](C)Cn2ccc3ccccc32)CC1`, for which the “% Inhibition” value is listed as -5% and the Z score amounted to 0.97.
In the case of `O=C(Cn1cc(C(F)(F)F)ccc1=O)Nc1ccc(N2CCOCC2)cc1`, the “% Inhibition” value was -14% and the Z score is 2.86.
Consider `COc1ccc([C@H]2C(=O)N(C3CCCCC3)CC(=O)N2C2CCCCCCC2)cc1`, for which the “% Inhibition” value is -4% and the Z score was 0.77.
On the same counts, the results for `Cc1nc(CN(C)Cc2nccs2)[nH]c1C` are -9% and 1.52.
As for `CS(=O)(=O)c1ccc([C@H]2CC(=O)Nc3c2cnn3C2CCCC2)cc1`, the “% Inhibition” value was -1% and the Z score was determined as 0.15.
Turning to `Cn1cc(NC(=O)Nc2cccc(F)c2)cc(Cl)c1=O`, the “% Inhibition” value is -1% and the Z score is 0.2.
As to `O=C(CCn1c2c(c3ccccc31)CCCC2)N1CCC(Cc2nc(C3CCOCC3)no2)CC1`, the “% Inhibition” value is given as 9% and the Z score is recorded as -1.12.
Consider `Nc1nc2c(c(N3CCN(C(=O)c4cnon4)C[C@H](O)C3)n1)CCC2`, for which the “% Inhibition” value is -9% and the Z score is 1.69.
With `O=C(CCc1nc(C2CCCC2)no1)Nc1cncnc1N1CCCC1`, the “% Inhibition” value is given as -3% and the Z score is reported as 0.48.
With `Cc1ccc(-c2ncc(CN(C)[C@@H](C)c3cccnc3)s2)o1`, the “% Inhibition” value is listed as -8% and the Z score came to 1.29.
The like results for `CCCC[C@@H](COC)NC(=O)C(=O)Nc1cccc(Cl)c1` were, in that order, -12% and 1.27.
As for `CC(C)(CC(F)F)C(=O)NCc1cccc(CN2CCCC2=O)c1`, the “% Inhibition” value is given as 20% and the Z score is -2.48.
For the molecule `Clc1ccc(O[C@H]2CCCN(Cc3cnc4cnccn34)C2)nc1`, the “% Inhibition” value was found to be 3% and the Z score is on record as -0.47.
Turning to `Cc1cc(CN(C)Cc2c[nH]c(C)n2)ccn1`, the “% Inhibition” value is 4% and the Z score is -0.55.
On the same counts, the results for `CC1=CCN(C(=O)N[C@@H](C)c2csc(C)n2)CC1` are -7% and 1.41.
For `C[C@H](NC(=O)N(Cc1ccoc1)C1CC1)c1cncc(F)c1`, the “% Inhibition” value is reported as -4% and the Z score is given as 0.5.
Turning to `Cc1ccc(CNCCOc2ccc3c(c2)OCO3)nc1`, the “% Inhibition” value was -7% and the Z score came to 0.62.
Take `COc1cccc(Nc2nnc(CC(=O)NCc3ccc(C)cc3)s2)c1`: the “% Inhibition” value was -16% and the Z score is on record as 1.89.
`C[C@H](NC(=O)NC1(C(N)=O)CCCC1)c1cn2ccsc2n1`: the “% Inhibition” value is -6% and the Z score is on record as 1.14.
Regarding `CCCn1c(=O)sc2cc(NC(=O)c3ccc(OC)cc3)ccc21`, the “% Inhibition” value turned out to be 13% and the Z score is listed as -2.13.
On the same counts, the results for `CC(C(=O)NC1C2CCC(C2)C1CO)c1ccccc1` (stereo unspecified) are -1% and 0.11.
On the same counts, the results for `Cn1cnnc1N1CCN(C(=O)NCCc2nccn2Cc2ccccc2)CC1` are 0% and 0.03.
Take `CNC(=O)C[C@H]1CCN(c2nc(C)nc(C)c2C)C1`: the “% Inhibition” value was -2% and the Z score worked out at 0.33.
For the molecule `COc1ccc(CNC(=O)[C@H]2CC(=O)N(c3ccc(OCC(=O)Nc4ccc(C)cc4)cc3)C2)cc1`, the “% Inhibition” value is -6% and the Z score came to 0.75.
As to `O=c1c2ccccc2nnn1C[C@H]1CC[C@H](C(=O)N2CCC(Cc3ccccc3)CC2)CC1`, the “% Inhibition” value was -11% and the Z score is recorded as 1.56.
With `Cn1c(C(=O)N2CCC[C@@]23CCOC3=O)cc2cc(C(F)(F)F)ccc21`, the “% Inhibition” value is -5% and the Z score was 0.76.
On to `COCCC(=O)N1CCC[C@H](n2c(=O)n(CC3CC3)c3cccnc32)C1`, for which the “% Inhibition” value is -13% and the Z score turned out to be 1.76.
On the same counts, the results for `COc1cc(OC)c(CN2CCN(C)C[C@@H]2C(C)C)c(C(=O)O)c1` are 3% and -0.35.
For `O=S(=O)(c1cnccc1Nc1cccc(C(F)(F)F)c1)N1CCOCC1`, the “% Inhibition” value worked out at 7% and the Z score is on record as -1.08.
On to `CCc1ncc(C(=O)N(C)Cc2ccc(-n3cccn3)cc2)cn1`, for which the “% Inhibition” value is given as -16% and the Z score was found to be 1.71.
The like results for `CNC(=NCc1ccnc(OC2CCC2)c1)NC` were, in that order, -16% and 1.37.
Take `COCCN(C)C(=O)C[C@]1(c2ccc(-c3ccccc3)cc2)CC(=O)N(C2CC2)C1=O`: the “% Inhibition” value came out at 1% and the Z score is on record as -0.15.
As for `O=S(=O)(c1ccc(F)c(F)c1)c1cnc2c(F)cccc2c1-c1ccc(Cl)cc1`, the “% Inhibition” value was -9% and the Z score is listed as 1.04.
In the case of `NC1=NC(=Nc2cccc(S(=O)(=O)N3CCCCC3)c2)c2ccccc21`, the “% Inhibition” value was -8% and the Z score was determined as 1.06.
On the same counts, the results for `Cc1cc(C)c(C(=O)N2CCN(C)[C@]3(CCC(=O)N(CC4CC4)CC3)C2)cn1` are -11% and 1.61.
Take `COc1ccc(NC(=O)N[C@H]2CCCS(=O)(=O)C2)cc1`: the “% Inhibition” value is -11% and the Z score is recorded as 1.6.
For `O=c1[nH]c(N2CCC(CO)CC2)nc2c1Cc1ccccc1OC2`, the “% Inhibition” value is 3% and the Z score is recorded as -0.58.
Turning to `CCS(=O)(=O)N1CCC(c2nc(C)ccc2C(=O)NCc2ccc(C)cc2)CC1`, the “% Inhibition” value is -13% and the Z score came to 1.62.
Consider `O=C(N1Cc2cccnc2C1)N(c1ccccc1)c1ccccc1`, for which the “% Inhibition” value is on record as -3% and the Z score is given as 0.66.
As for `Cc1nc(CNC(=O)CN2CCOCC2)oc1-c1ccc(Cl)cc1`, the “% Inhibition” value is -9% and the Z score was 1.39.
Take `Cc1cnc(C)c(-c2cc(O)c3c(c2)CN(Cc2c[nH]cn2)CCO3)n1`: the “% Inhibition” value is listed as -3% and the Z score amounted to 0.27.
With `Cc1cc(F)cc(NC(=O)N2CCn3nc(N)cc3C2)c1`, the “% Inhibition” value is -9% and the Z score is reported as 1.71.
On the same counts, the results for `Cc1ccc2c(c1)CN(CCOc1cccc(C(=O)O)c1)CCO2` are -17% and 3.43.
Turning to `CCC(CC)C(=O)N[C@@H](C)c1nnnn1C1CC1`, the “% Inhibition” value is reported as -6% and the Z score is 0.56.
